Source: publication PMC4336329 (PLoS ONE, 2015)
Out of some 310,000 compounds screened, about 2,200 (0.71%) showed an effect of 50% or more. The effect is printed as a negative number. The list shows a part of the results.

What follows are compounds tested against human ether-à-go-go-related gene (hERG) potassium channel (human, UniProt Q12809) (assay: primary screen, population patch clamp on CHO cells stably expressing hERG).
Chain of human ether-à-go-go-related gene (hERG) potassium channel (Q12809 whole entry, looked up): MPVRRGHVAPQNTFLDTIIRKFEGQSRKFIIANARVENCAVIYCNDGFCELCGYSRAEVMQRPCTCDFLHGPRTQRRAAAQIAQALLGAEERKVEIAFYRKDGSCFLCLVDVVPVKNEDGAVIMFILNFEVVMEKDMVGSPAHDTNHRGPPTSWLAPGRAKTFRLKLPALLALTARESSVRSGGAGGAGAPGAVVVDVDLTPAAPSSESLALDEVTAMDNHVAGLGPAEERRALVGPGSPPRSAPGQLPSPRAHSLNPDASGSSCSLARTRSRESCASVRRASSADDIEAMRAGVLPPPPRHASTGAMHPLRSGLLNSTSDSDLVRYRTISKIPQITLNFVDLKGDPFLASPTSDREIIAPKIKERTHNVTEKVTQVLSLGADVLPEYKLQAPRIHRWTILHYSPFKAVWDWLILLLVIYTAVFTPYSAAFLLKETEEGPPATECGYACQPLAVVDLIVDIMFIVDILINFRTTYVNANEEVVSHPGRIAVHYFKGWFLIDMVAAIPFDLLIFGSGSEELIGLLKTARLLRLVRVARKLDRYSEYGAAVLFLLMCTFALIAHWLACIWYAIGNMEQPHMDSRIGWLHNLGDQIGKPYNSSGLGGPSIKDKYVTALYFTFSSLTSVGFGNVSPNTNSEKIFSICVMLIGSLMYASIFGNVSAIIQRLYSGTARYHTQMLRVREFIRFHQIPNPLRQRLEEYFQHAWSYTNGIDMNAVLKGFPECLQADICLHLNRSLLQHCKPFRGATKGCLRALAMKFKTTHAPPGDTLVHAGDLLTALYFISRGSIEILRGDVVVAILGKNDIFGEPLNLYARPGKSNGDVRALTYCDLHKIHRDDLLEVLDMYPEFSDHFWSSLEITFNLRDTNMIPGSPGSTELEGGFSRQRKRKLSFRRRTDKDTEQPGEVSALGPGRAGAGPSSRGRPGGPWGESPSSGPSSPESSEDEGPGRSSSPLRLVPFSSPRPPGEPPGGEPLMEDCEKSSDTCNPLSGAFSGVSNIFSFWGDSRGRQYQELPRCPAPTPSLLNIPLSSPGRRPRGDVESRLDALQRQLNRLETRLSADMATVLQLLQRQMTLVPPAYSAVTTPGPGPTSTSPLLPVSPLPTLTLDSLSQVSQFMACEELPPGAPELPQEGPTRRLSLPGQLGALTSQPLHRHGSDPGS

| Compound | hERG current change (%, negative = inhibition) at 1uM [%] |
| --- | --- |
| O=C1CC(c2cccc(Cl)c2)Cc2nc(N3CCOCC3)ncc21 (centres unmarked) | 11.3 |
| CCCCC(=O)NC(=S)Nc1cccc(NC(=O)c2ccco2)c1 | 8.58 |
| O=C(COc1ccccc1[N+](=O)[O-])Nc1cc(C(=O)O)cc(C(=O)O)c1 | 16 |
| COc1ccc(CNC(=O)Cn2c(=O)n(CC(=O)N3CCCCC3)c(=O)c3sccc32)cc1 | 11.6 |
| O=C(NCCc1ccccc1)C(=O)NCc1ccncc1 | -3.68 |
| O=C1CCN(Cc2ccc([N+](=O)[O-])cc2)CCN1CCO | 5.29 |
| COc1ccc(NC(=O)c2ccc(Oc3ncccn3)cc2)cc1 | 9.22 |
| O=C(NCc1nnc2c3ccccc3c(-c3ccccc3)nn12)c1ccccc1Cl | 12 |
| CCC(C)(C)C1CCc2[nH]nc(C(=O)O)c2C1 (centres unmarked) | 11.9 |
| COc1ccc(-c2cc([C@H]3[C@@H]4C=CCC[C@@]4(C)C(=O)N3Cc3ccccc3)ccc2F)cc1OC | 14.2 |
| CCN1CCN(CCOc2ccccc2OCc2ccccc2)CC1.O=C(O)C(=O)O | -32.7 |
| Cc1nc(Cl)c(C#N)c2c1CCCC2 | 2.59 |
| Cc1ccn2cc(CCNC(=O)C3CC=CCC3C(=O)O)nc2c1 (centres unmarked) | 5.6 |
| CCN(CC)CC(=O)Nc1nn(-c2ccccc2)nc1C(N)=O | 7.18 |
| COc1ccc(CCNC(=O)COc2ncnc3ccccc23)cc1OC | 9.68 |
| CN(CC(=O)Nc1cccc(F)c1)CC(=O)N1CCCCC1 | 7.19 |
| NC(=O)Nc1ccc(C(=O)OCC(=O)NC2CCCCC2)cc1 | 16.5 |
| O=C(CNS(=O)(=O)c1ccc(Cl)cc1)OCC(=O)N1CCCc2ccccc21 | 6.61 |
| CS(=O)(=O)N1CCN(c2ccc(NC(=O)c3ccc(Br)o3)cc2)CC1 | 5.8 |
| CCOC(=O)c1ccc(NC(=O)N2CC(C)OC(C)C2)cc1 (centres unmarked) | 1.75 |
| COc1ccc(C(=O)Nc2ccccc2-c2ccccc2)cc1Cl | 13.1 |
| COCCNC(=O)c1onc(CSc2ccccc2F)c1C(=O)O | 8.6 |
| Cc1oc2ccc(OS(C)(=O)=O)cc2c1C(=O)OC(C)C | 9.1 |

| Compound | hERG current change (%, negative = inhibition) at 1uM [%] |
| --- | --- |
| CCOC(=O)c1oc2ccccc2c1CSc1nnnn1-c1ccc(C)cc1 | 5.36 |
| CCCC(=O)Nc1cccc(C(=O)Nc2ccccc2OCC)c1 | 5.99 |
| CC(/C=C/c1ccc2c(c1)OCO2)=N/NC(=O)C1COc2ccccc2O1 (centres unmarked) | -0.811 |
| Fc1ccc(C2=NOC(c3nnc(-c4ccccc4)o3)C2)cc1 (centres unmarked) | 5.5 |
| Nc1ncnc(Nc2ccccc2Cl)n1 | 8.95 |
| CCOC(=O)N1CCC(NC(=O)CN2C(=O)CSc3ncccc32)CC1 | 3.82 |
| CC(C)=CCc1c(O)cc(O)c2c(=O)c(O[C@@H]3O[C@@H](C)[C@H](O)[C@@H](O)[C@H]3O)c(-c3ccc(O)cc3)oc12 | 12.5 |
| O=C(COc1ccccc1O)NCCN1CCOCC1 | 17.7 |
| Cc1c(C#N)c(O)n(CCO)c(=O)c1N=Nc1ccc2c(c1)COC2=O | 10.4 |
| COc1ccc(OCCC(=O)OCC(=O)Nc2ccc(S(=O)(=O)N3CCOCC3)cc2)cc1 | 74.8 |
| CCCn1c(N)c(Sc2ccccc2)c(=O)n(CCC)c1=O | 2.48 |
| CC(C)Nc1nnc(SCc2cc(=O)n3ccsc3n2)s1 | 13.6 |
| COC(=O)CCC(=O)N1CCCC(CO)(Cc2ccccc2C)C1 (centres unmarked) | 6.02 |
| Cc1cs/c(=N\N=C2CCCCC2)n1Cc1ccco1 | 18.2 |
| Cc1nc2c(C(=O)NCc3ccco3)cnn2c(C)c1Cc1ccc(F)cc1Cl | 1.91 |
| CCOC(=O)C(C)NC(=O)CCc1nnc2ccc(N3CCC(C)CC3)nn12 (centres unmarked) | 14.5 |
| Cc1ccc(-n2c(O)c(/C=N/Nc3ccc(S(=O)(=O)N4CCOCC4)cc3[N+](=O)[O-])c3ccccc3c2=O)c(C)c1 | 8.62 |
| COc1ccc(CCNC(=O)c2ccc(CSc3ccccc3)o2)cc1 | 1.49 |
| O=C(/C=C/c1c(F)cccc1Cl)Nc1ccc(S(=O)(=O)Nc2ncccn2)cc1 | 14.1 |
| O=C(NCc1cccc(Cl)c1)c1ccncc1 | 6.03 |
| Cc1ccc2[nH]c3c(c2c1)CN(C(=O)CN1CCN(C(=O)c2ccco2)CC1)CC3 | 6.28 |
| COc1cc(/C=C/C(C)=O)cc(OC)c1OC | 5.86 |
| O=C1c2ccccc2NC(c2ccccc2)N1NS(=O)(=O)c1ccccc1 (centres unmarked) | 11.7 |

| Compound | hERG current change (%, negative = inhibition) at 1uM [%] |
| --- | --- |
| c1ccn2c(SCc3ccc4c(c3)OCO4)nnc2c1 | 12.4 |
| CCn1c(C)[n+](CC)c2ccc(S(=O)(=O)N(C)C)cc21.[I-] | 11.6 |
| O=C(O)c1cccc(-n2cccc2/C=C\[N+](=O)[O-])c1 | 14.1 |
| Cc1cccc(C)c1-n1cccc1/C=C1/C(=N)N2C(=NC1=O)SN=C2S(C)(=O)=O | 5.28 |
| COc1ccc2nc(/C=N/NC(=O)[C@H](C)NC(=O)OC(C)(C)C)ccc2c1 | 12.6 |
| O=C(NCCCCc1ccccc1)Nc1cccc(F)c1 | 4.51 |
| COc1ccc(C(=O)/C=C2/c3ccccc3CC(C)(C)N2C)cc1OC.Cl | 13.5 |
| CCN(Cc1ccccc1)S(=O)(=O)c1ccc(S(=O)(=O)N(Cc2ccccn2)Cc2ccco2)cc1 | 14.6 |
| COc1ccc(NC(=O)C2CC(=O)N/C(=N/N=C/c3ccccc3)S2)cc1 (centres unmarked) | 7.17 |
| O=C(Nc1ccc(OC(F)F)cc1)c1ncc(Cl)c(Cl)c1Cl | 7.69 |
| CS(=O)(=O)N1CCCC(C(=O)NCc2ccccc2Cl)C1 (centres unmarked) | 8.35 |
| COc1cccc2c(=O)c(SC(F)(F)C(F)C(F)(F)F)c(C)[nH]c12 (centres unmarked) | 5.16 |
| COc1ccccc1NC(=O)C(C)OC(=O)/C=C/c1ccc2ccccc2n1 (centres unmarked) | 9.88 |
| Cc1ccc2oc(-c3ccccc3)nc2c1 | 13 |
| O=C1NC(=O)N(c2ccc(Br)cc2)C(=O)/C1=C/c1ccsc1 | 12.8 |
| Brc1ccc(/C=N/Nc2ncnc3c2cnn3Cc2ccccc2)cc1 | 15.3 |
| COc1ccc(C(CC(=O)N2CCC3(CC2)OCCO3)NS(=O)(=O)c2ccc(F)cc2)cc1 (centres unmarked) | 10 |
| Cc1ccc(N2C(=O)N(CC(=O)Nc3ccc(F)c(F)c3)C(=O)C2C)cc1 (centres unmarked) | 5.09 |
| N#CC1(NC(=O)COC(=O)CNC(=O)c2sc3ccccc3c2Cl)CCCCC1 | -6.89 |
| COc1ccc(NC(=O)CCN2C(=O)c3ccccc3S2(=O)=O)c(OC)c1 | 6.77 |
| NNc1ccc(S(=O)(=O)N2CCCCC2)cn1 | 19.4 |
| CCc1ccc(CN2CCCC(C(=O)Nc3ccc(-c4cscn4)cc3)C2)o1 (centres unmarked) | 7.05 |
| COc1ccc([C@H]2CC(=O)C=C(c3ccc4ncccc4c3)C2)cc1 | 0.85 |

| Compound | hERG current change (%, negative = inhibition) at 1uM [%] |
| --- | --- |
| Cc1nc2ncnn2c(C)c1CCC(=O)N1CCc2ccccc21 | -66.3 |
| O=C(COc1ncnc2sccc12)N1CCc2ccccc2C1 | 5.88 |
| COc1ccc2c(c1)nc(NCCCO)n2Cc1ccccc1 | 8.92 |
| Cc1cc(C)n(-c2cc(N3CCN(S(=O)(=O)c4ccc(Br)cc4)CC3)ccc2[N+](=O)[O-])n1 | 4.96 |
| O=C(NCCc1ccc(Cl)cc1)c1ccc(=O)[nH]c1 | 10.8 |
| COc1cccc(/C=C/C(=O)OCC(=O)Nc2ccc(Cl)cn2)c1 | 4.84 |
| O=C(N/N=C/c1ccc[nH]1)c1cc(-c2ccc(Cl)cc2)nc2ccccc12 | 5.33 |
| Cc1cccc(C)c1Nc1nnc(SC(C)C(=O)Nc2c(C)n(C)n(-c3ccccc3)c2=O)s1 (centres unmarked) | 1.11 |
| CC(C)=NOc1nc(N(C)C)nc(N2CCOCC2)n1 | 11.8 |
| COc1nc(NC(C)(C)C)nc(Oc2ccc(=O)n(-c3ccccc3)n2)n1 | -6.19 |
| CCOC(=O)C1(Cc2cccc(Cl)c2)CCCN(C(=O)c2cc(C(C)C)nn2C)C1 (centres unmarked) | 14.2 |
| C/C=C/c1ccc(OCC(=O)N2CCc3cc(OC)c(OC)cc3C2)c(OC)c1 | 8.64 |
| CN(C(=O)C1CCC(=O)N(C2CC2)C1)C1CCCCC1 (centres unmarked) | 17.6 |
| O=c1[nH]ncc(N/N=C/c2ccccc2)c1Cl | -9.12 |
| COc1ccc(/C=N/NC(=O)c2cccc(OC(F)(F)C(F)F)c2)cc1O | 22.3 |
| O=C(O)C[C@H]1c2ccccc2S(=O)(=O)N1C1CCCCC1 | 20.8 |
| COC(=O)C1=C(C)C(c2ccc(OC)cc2)NC(=S)N1 (centres unmarked) | 14.2 |
| O=S(=O)(NCc1cccnc1)c1cccc2cccnc12 | 4.95 |
| CCCc1ncc(C(O)c2ccc(OC)cc2)n1C (centres unmarked) | -1.53 |
| CN(C(=O)/C=C/c1ccccc1)C1CCS(=O)(=O)C1 (centres unmarked) | 2.19 |
